Reference: PubChem BioAssay AID1458 (National Center for Advancing Translational Sciences (NCATS), 2008)
Hit rate of the full screen: of about 210,000 compounds, about 5,900 (2.8%) were called active. Inconclusive means that the source gave no clear call. Such entries were picked first, then a sample of the others. Calls come from the whole dose curve; as a rule, active = well fitted activation curve with a large enough effect; inconclusive = small, poorly fitted or top-dose-only effect; inactive = no such curve, though single readings can be large or run the other way. Potencies beside an inconclusive call are fits to weak or partial responses and may not hold up.

Experiment: qHTS Assay for Enhancers of SMN2 Splice Variant Expression; note: nearly all actives have a fitted effect of over 55% in size; for activity change, positive = activation: % of control where 0% means no effect
Settings: HEK293 SMN2-luciferase splicing reporter, luminescence, 30-36 h; activity change, positive = activation: at 46.1 µM (top of the series)
Excerpt: NIH Chemical Genomics Center [NCGC] NIH Molecular Libraries Probe Production centers Network [MLPCN] MLPCN Grant: R03 MH084179-01 Assay Submitter (PI): Elliot Androphy NCGC Assay Overview: Spinal muscular atrophy (SMA) is caused by insufficient levels of the survival motor neuron protein SMN. The SMN locus on chromosome 5q13 contains two inverted copies of SMN called SMN1 and SMN2 which are 99% identical at the amino acid level. SMN1 is a fully functional protein and SMN2 skips exon 7 90% of the time. Skipping of exon 7 produces non-functional protein product. 10% of the SMN2 protein includes exon 7 and is fully functional. In the SMA disease state, mutations in the SMN1 locus are the cause of the disease state. Because only 10% of SMN2 is of the fully functional form, it is not sufficient to overcome the deficiency produced by the loss of the SMN1 product. A therapy that either increase the amount of SMN2 product made or to increase the inclusion of exon 7 has been proposed for the treatment of SMA. We have designed an assay to identify small molecules that can increase the amount of functional SMN2 product by appending a luciferase reporter gene after the native SMN2 gene, such that inclusion of exon 7 in the expressed product places the luciferase sequence in frame, thus generating functional luciferase enzyme.
NCGC Assay Protocol Summary: This screen utilizes a luciferase reporter gene assay, combining the promoter and splicing based cassettes in tandem with the major portion of the native SMN2 cDNA, and then transfected into HEK293 cells. Compounds that increase luciferase signal presumably enhance expression of the functional SMN2 splice variant. Passaging media contained DMEM w/ glutamax (+phenol red) 10% FCS, 1x pen/strep, 200 ug/ml hygro, 1x sodium pyruvate. Assay media contained DMEM w/ glutamax (-phenol red) 10% FCS, 1x pen strep, 1x pyruvate Sequence, Parameter, Value, Description (1) Cells, […], 2000 cells/well, 1536 TC treated White solid bottom plate (2) Time, 10-12 hours, 37C 5% CO2 (3) Compound, 23 nl, MLSMR Library (4) Control Compound, 23 nL, Sodium butyrate st 4.5mM (final) conc (5) Time, 30-36 hours, 37C 5% CO2 (6) Reagent, 3 ul, One Glo (TM) from Promega (7) Time, 5-15 minutes, Room temp (8) Detector, Viewlux: luminescent read, 60 second integration, high speed 2x binning Keywords: Spinal muscular atrophy, SMA, SMN2, high throughput screening, MLSMR, MLPCN, NIH Roadmap, qHTS and NCGC
Potency is the fitted concentration of half-maximal effect; tags give direction and shape of the fitted curve.

SMILES	activity change, positive = activation	Potency
CCn1cc(C(=O)NCCc2ccc(C)cc2)c(=O)c2cc(S(=O)(=O)N3CCc4ccccc4C3)ccc21	inactive: 18.5%	
Cc1cc(C)cc(NC(=O)CNS(=O)(=O)c2ccc3nc(C)sc3c2)c1	inactive: -0.364%	
Cn1c(CCc2ccc(N)cc2)nc2ccccc21		active: 11.2 µM
COc1ccc(Cn2c(/C=C/c3ccccc3)nc3ccccc32)cc1		inconclusive: 25.1 µM [activator, single point]
NC(CSCSCC(N)C(=O)O)C(=O)O (stereo not given)	inactive: -0.594%	
COC(=O)C1CCN(C(=O)Cc2ccc(Br)cc2)CC1		inconclusive: 3.98 µM [activator, full curve]
Cc1cc(C(=O)Nc2nc(-c3ccccn3)cs2)ccc1[N+](=O)[O-]	inactive: -68.6%	
O=c1/c(=C\c2cccnc2)sc2nc3ccccc3n12		inconclusive: 28.2 µM [activator, partial curve]
CN(C)Cc1cc(C(C)(C)C)cc(CN(C)C)c1O	inactive: -23.8% [at 9.22 µM]	
O=P1(O)Oc2c(-c3ccccc3)cc3ccccc3c2-c2c(c(-c3ccccc3)cc3ccccc23)O1	inactive: -1.48%	
CC1(C)Cc2c(sc(NC(=O)c3ccco3)c2C#N)C(C)(C)N1		inconclusive: 0.0002 µM [activator]
COc1ccc(C(=O)Nc2ccc3oc(-c4ccc5ccccc5c4)nc3c2)cc1Br	inactive: -7.34%	
O=C(CC1CCCCC1)NCCOc1ccccc1	inactive: 8.18%	
CCOC(=O)c1c(N2C(=O)Nc3cc(Cl)c(Cl)cc3N2O)sc2c1CCCCC2	inactive: 2.64%	
O=C(/C=C/c1ccccc1)NNC(=O)c1cccnc1	inactive: -13.3%	
CCCCNc1ccc(C(=O)Nc2cccc(C)n2)cc1[N+](=O)[O-]		inconclusive: 22.4 µM [activator, single point]
CCCc1ccc(OCc2ccc(C(=O)N3CCN(c4ccccn4)CC3)o2)c(OC)c1		inconclusive: 35.5 µM [activator, single point]
O=C(Cc1ccc(Cl)cc1)NCc1nc(-c2ccccc2)no1		inconclusive: 35.5 µM [activator, single point]
O=C(COc1ccccc1[N+](=O)[O-])N/N=C/c1cccc(OC(=O)c2ccc3c(c2)OCO3)c1		inconclusive: 20 µM [activator, single point]
O=C(NCCN1CCOCC1)c1ccc(NC(=O)C2COc3ccccc3O2)cc1 (stereo not given)	inactive: -13.7%	
CCCC[C@@H]1C[C@H]1C(NC(=O)c1cccnc1)c1ccc(Cl)cc1 (stereo not given in full)	inactive: -78.2%	
Cc1cc(C)n(/N=C/c2cc([N+](=O)[O-])ccc2O)c(=O)c1	inactive: -8.63%	
COc1ccc(Cl)cc1C(=O)N1CCN=C1SC	inactive: -5.37%	
CN1CCN(c2cnn(-c3ccccc3)c(=O)c2Br)CC1		inconclusive: 11.2 µM [activator, partial curve]
O=C(NCn1cnccc1=O)c1ccccc1		inconclusive: 10 µM [activator, partial curve]

SMILES	activity change, positive = activation	Potency
CC(=O)c1ccc(OCc2ccccc2)c(C)c1O		inconclusive: 10 µM [activator, partial curve, poor fit]
CCO/C(C)=C1\N=C(c2ccc(Cl)cc2)OC1=O		inconclusive: 2.82 µM [activator, partial curve]
CN=C1S/C(=C\c2ccc(N3CCCC3)c(F)c2)C(=O)N1C		inconclusive: 14.1 µM [activator, partial curve]
CC12CCC(C(=O)Nc3ccc4c(c3)OCCO4)(OC1=O)C2(C)C (stereo not given)		inconclusive: 5.01 µM [activator, single point]
COC(=O)Cc1c(C)[nH]n(-c2cc(Cl)cc(Cl)c2)c1=O		inconclusive: 31.6 µM [activator, single point]
CN1CCc2c(sc3ncn4nc(-c5ccccc5O)nc4c23)C1		inconclusive: 4.47 µM [activator, single point]
O=C(NCc1ccccc1)c1cc2ccccc2o1		inconclusive: 2.82 µM [activator, single point]
CCCCCCOc1ccc(OCC(O)CN2C(=O)NC(C)(C)C2=O)cc1 (stereo not given)		inconclusive: 3.16 µM [activator, partial curve, poor fit]
COc1ccccc1CCNC(=O)c1nc(-c2cccs2)no1		inconclusive: 12.6 µM [activator, partial curve]
O=C(/C=C/c1cccc([N+](=O)[O-])c1)NCc1ccc2c(c1)OCO2	inactive: -2.72%	
O=C(Nc1ccc(N2CCCC2)cc1)c1cccc(F)c1		active: 0.631 µM
O=S(=O)(c1ccc(F)cc1)n1ccc(-c2cnc(-c3ccccc3)s2)n1	inconclusive: 67% [activator]	
O=c1oc(-c2cc3ccccc3o2)nc2sc3c(c12)CCCC3		inconclusive: 0.631 µM [activator, full curve]
COc1ccc(N2Cc3ccccc3C2=NC(=O)c2cccc([N+](=O)[O-])c2)cc1		inconclusive: 35.5 µM [activator, single point]
CC(C)C(O)(C(C)C)C(C)C	inactive: -3.5% [at 9.22 µM]	
O=C(NCCc1ccccc1)NC1CCCCC1		active: 11.2 µM
Cc1ccc(C(=O)CCC2CCCC2=O)cc1 (stereo not given)		inconclusive: 14.1 µM [activator, single point]
C/C(N)=C(/C#N)C(=O)CSc1nnc(-c2ccc(OC(F)F)cc2)o1		active: 11.2 µM
CN(C)S(=O)(=O)Oc1cccc(C(=O)Nc2ccc(Cl)cc2)c1	inactive: 3.64%	
c1ccc(OCCOc2ncnc3sccc23)cc1		inconclusive: 20 µM [activator, partial curve, poor fit]
Fc1ccc(-c2cnn3c(-c4cccs4)ccnc23)cc1		active: 3.16 µM
Cc1cccn2c1nc(=S)n2C(=O)c1ccco1		inconclusive: 31.6 µM [activator, single point]
COc1ccc(N2C(=O)c3ccccc3NC2(C)C)cc1		active: 8.91 µM
Cc1ccccc1C(=O)Nc1sc2c(c1C(=O)N1CCC(C)CC1)CCCC2	inactive: -1.84%	
Fc1cccc(CSc2ccc(-c3ccc4c(c3)OCO4)nn2)c1		inconclusive: 35.5 µM [activator, single point]
